Data from the supplement of paper PMC10369915.
Some of the results follow. Cut-off read from the data, not from the text of the source: active = 3.2 or more and inactive = the rest. The signal is at background level for most entries.

Molecular target: SHP2 C-SH2 domain E139D
Assay: enrichment score (SH2-bound / input frequency) (ratio); bacterial display of known human phosphotyrosine sites (pTyr-Var adds point mutants) read by sequencing; higher = stronger binding; tyrosines were phosphorylated by kinases first
Settings: peptide library: Human pTyr
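Note: displayed peptides selected on beads carrying the immobilized SH2 domain, with library peptides lacking any tyrosine serving as negative controls.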

Binder | enrichment score
TVTSTDEYLDLSAPF [FGFR3_HUMAN_760] | inactive: 0.656
DRSNDKVYENVTGLV [FAK1_HUMAN_925] | inactive: 1.12
IYSLNEGYAKYFDAA [F16P2_HUMAN_216] | inactive: 1.04
TSSLPEGYYEEAVPL [AFAP1_HUMAN_93] | inactive: 0.85
MLAGVSEYELPEDPK [FGFR2_HUMAN_466] | inactive: 0.819
AETADGGYMTLNPRA [FCG2A_HUMAN_288_YA] | inactive: 0.449
GKDEGVVYSVVHRTS [FCRL6_HUMAN_371] | active: 3.96
VYEELNIYSATYSEL [FCERB_HUMAN_225] | inactive: 1.78
IIDEEDTYTMPSTRD [FAK1_HUMAN_407] | inactive: 0.827
GVHHIDYYKKTSNGR [FGFR4_HUMAN_643] | inactive: 1.32
MGISVVSYTLKDIHD [FLOT1_HUMAN_149] | inactive: 1.13
YMEDSTYYKASKGKL [FAK1_HUMAN_577] | inactive: 0.871
AMEDSTAYKASKGKL [FAK1_HUMAN_577_YA] | inactive: 0.998
ANCTHDLYMIMRECW [FGFR3_HUMAN_724] | inactive: 1.35
DAESEGGYTTANAES [FAM82A2_HUMAN_176] | inactive: 0.939
FTSAEPQYQPGDQTG [FGR_HUMAN_523] | inactive: 0.674
MLAGVSEYELPEDPR [FGFR1_HUMAN_463] | inactive: 0.691
GDFGLSRYMEDSTYY [FAK1_HUMAN_570] | inactive: 0.879

Molecular target: SHP2 C-SH2 domain wild-type
Assay: as above
Settings: peptide library: Human pTyr

Binder | enrichment score
TVTSTDEYLDLSAPF [FGFR3_HUMAN_760] | inactive: 0.572
DRSNDKVYENVTGLV [FAK1_HUMAN_925] | inactive: 0.86
IYSLNEGYAKYFDAA [F16P2_HUMAN_216] | inactive: 2.17
TSSLPEGYYEEAVPL [AFAP1_HUMAN_93] | inactive: 0.69
MLAGVSEYELPEDPK [FGFR2_HUMAN_466] | inactive: 0.637
AETADGGYMTLNPRA [FCG2A_HUMAN_288_YA] | inactive: 0.475
GKDEGVVYSVVHRTS [FCRL6_HUMAN_371] | active: 7.84
VYEELNIYSATYSEL [FCERB_HUMAN_225] | inactive: 1.72
IIDEEDTYTMPSTRD [FAK1_HUMAN_407] | inactive: 0.844
GVHHIDYYKKTSNGR [FGFR4_HUMAN_643] | inactive: 1.21
MGISVVSYTLKDIHD [FLOT1_HUMAN_149] | inactive: 1.18
YMEDSTYYKASKGKL [FAK1_HUMAN_577] | inactive: 0.758
AMEDSTAYKASKGKL [FAK1_HUMAN_577_YA] | inactive: 0.769
ANCTHDLYMIMRECW [FGFR3_HUMAN_724] | inactive: 1.65
DAESEGGYTTANAES [FAM82A2_HUMAN_176] | inactive: 0.673
FTSAEPQYQPGDQTG [FGR_HUMAN_523] | inactive: 0.463
MLAGVSEYELPEDPR [FGFR1_HUMAN_463] | inactive: 0.598
GDFGLSRYMEDSTYY [FAK1_HUMAN_570] | inactive: 0.802

Molecular target: SHP2 N-SH2 domain L43F
Assay: as above
Settings: peptide library: Human pTyr

Binder | enrichment score
TVTSTDEYLDLSAPF [FGFR3_HUMAN_760] | inactive: 0.501
DRSNDKVYENVTGLV [FAK1_HUMAN_925] | inactive: 0.942
IYSLNEGYAKYFDAA [F16P2_HUMAN_216] | inactive: 0.737
TSSLPEGYYEEAVPL [AFAP1_HUMAN_93] | inactive: 0.758
MLAGVSEYELPEDPK [FGFR2_HUMAN_466] | inactive: 0.601
AETADGGYMTLNPRA [FCG2A_HUMAN_288_YA] | inactive: 0.554
GKDEGVVYSVVHRTS [FCRL6_HUMAN_371] | inactive: 0.626
VYEELNIYSATYSEL [FCERB_HUMAN_225] | inactive: 1.39
IIDEEDTYTMPSTRD [FAK1_HUMAN_407] | inactive: 0.912
GVHHIDYYKKTSNGR [FGFR4_HUMAN_643] | inactive: 0.94
MGISVVSYTLKDIHD [FLOT1_HUMAN_149] | active: 14.1
YMEDSTYYKASKGKL [FAK1_HUMAN_577] | inactive: 1.06
AMEDSTAYKASKGKL [FAK1_HUMAN_577_YA] | inactive: 1
ANCTHDLYMIMRECW [FGFR3_HUMAN_724] | inactive: 1.54
DAESEGGYTTANAES [FAM82A2_HUMAN_176] | inactive: 0.876
FTSAEPQYQPGDQTG [FGR_HUMAN_523] | inactive: 0.533
MLAGVSEYELPEDPR [FGFR1_HUMAN_463] | inactive: 0.676
GDFGLSRYMEDSTYY [FAK1_HUMAN_570] | inactive: 0.681

Molecular target: SHP2 N-SH2 domain T42A
Assay: as above
Settings: peptide library: Human pTyr

Binder | enrichment score
TVTSTDEYLDLSAPF [FGFR3_HUMAN_760] | inactive: 0.723
DRSNDKVYENVTGLV [FAK1_HUMAN_925] | inactive: 0.911
IYSLNEGYAKYFDAA [F16P2_HUMAN_216] | inactive: 0.81
TSSLPEGYYEEAVPL [AFAP1_HUMAN_93] | inactive: 0.657
MLAGVSEYELPEDPK [FGFR2_HUMAN_466] | inactive: 0.62
AETADGGYMTLNPRA [FCG2A_HUMAN_288_YA] | inactive: 0.443
GKDEGVVYSVVHRTS [FCRL6_HUMAN_371] | inactive: 1.04
VYEELNIYSATYSEL [FCERB_HUMAN_225] | inactive: 1.62
IIDEEDTYTMPSTRD [FAK1_HUMAN_407] | inactive: 0.739
GVHHIDYYKKTSNGR [FGFR4_HUMAN_643] | inactive: 1.01
MGISVVSYTLKDIHD [FLOT1_HUMAN_149] | inactive: 1.15
YMEDSTYYKASKGKL [FAK1_HUMAN_577] | inactive: 0.764
AMEDSTAYKASKGKL [FAK1_HUMAN_577_YA] | inactive: 0.74
ANCTHDLYMIMRECW [FGFR3_HUMAN_724] | inactive: 1.53
DAESEGGYTTANAES [FAM82A2_HUMAN_176] | inactive: 1.3
FTSAEPQYQPGDQTG [FGR_HUMAN_523] | inactive: 0.621
MLAGVSEYELPEDPR [FGFR1_HUMAN_463] | inactive: 0.75
GDFGLSRYMEDSTYY [FAK1_HUMAN_570] | inactive: 0.663

Molecular target: SHP2 N-SH2 domain T52S
Assay: as above
Settings: peptide library: Human pTyr

Binder | enrichment score
TVTSTDEYLDLSAPF [FGFR3_HUMAN_760] | inactive: 0.531
DRSNDKVYENVTGLV [FAK1_HUMAN_925] | inactive: 0.856
IYSLNEGYAKYFDAA [F16P2_HUMAN_216] | inactive: 0.731
TSSLPEGYYEEAVPL [AFAP1_HUMAN_93] | inactive: 0.786
MLAGVSEYELPEDPK [FGFR2_HUMAN_466] | inactive: 0.803
AETADGGYMTLNPRA [FCG2A_HUMAN_288_YA] | inactive: 0.383
GKDEGVVYSVVHRTS [FCRL6_HUMAN_371] | inactive: 0.744
VYEELNIYSATYSEL [FCERB_HUMAN_225] | inactive: 1.56
IIDEEDTYTMPSTRD [FAK1_HUMAN_407] | inactive: 0.846
GVHHIDYYKKTSNGR [FGFR4_HUMAN_643] | inactive: 0.83
MGISVVSYTLKDIHD [FLOT1_HUMAN_149] | active: 9.57
YMEDSTYYKASKGKL [FAK1_HUMAN_577] | inactive: 0.703
AMEDSTAYKASKGKL [FAK1_HUMAN_577_YA] | inactive: 1.05
ANCTHDLYMIMRECW [FGFR3_HUMAN_724] | inactive: 2.09
DAESEGGYTTANAES [FAM82A2_HUMAN_176] | inactive: 0.841
FTSAEPQYQPGDQTG [FGR_HUMAN_523] | inactive: 0.566
MLAGVSEYELPEDPR [FGFR1_HUMAN_463] | inactive: 0.664
GDFGLSRYMEDSTYY [FAK1_HUMAN_570] | inactive: 0.736

Molecular target: SHP2 N-SH2 domain wild-type
Assay: as above
Settings: peptide library: Human pTyr

Binder | enrichment score
TVTSTDEYLDLSAPF [FGFR3_HUMAN_760] | inactive: 0.568
DRSNDKVYENVTGLV [FAK1_HUMAN_925] | inactive: 0.9
IYSLNEGYAKYFDAA [F16P2_HUMAN_216] | inactive: 0.806
TSSLPEGYYEEAVPL [AFAP1_HUMAN_93] | inactive: 0.702
MLAGVSEYELPEDPK [FGFR2_HUMAN_466] | inactive: 0.858
AETADGGYMTLNPRA [FCG2A_HUMAN_288_YA] | inactive: 0.847
GKDEGVVYSVVHRTS [FCRL6_HUMAN_371] | inactive: 0.598
VYEELNIYSATYSEL [FCERB_HUMAN_225] | inactive: 2.11
IIDEEDTYTMPSTRD [FAK1_HUMAN_407] | inactive: 0.962
GVHHIDYYKKTSNGR [FGFR4_HUMAN_643] | inactive: 0.995
MGISVVSYTLKDIHD [FLOT1_HUMAN_149] | inactive: 3.08
YMEDSTYYKASKGKL [FAK1_HUMAN_577] | inactive: 1.11
AMEDSTAYKASKGKL [FAK1_HUMAN_577_YA] | inactive: 0.82
ANCTHDLYMIMRECW [FGFR3_HUMAN_724] | inactive: 2.16
DAESEGGYTTANAES [FAM82A2_HUMAN_176] | inactive: 0.814
FTSAEPQYQPGDQTG [FGR_HUMAN_523] | inactive: 0.521
MLAGVSEYELPEDPR [FGFR1_HUMAN_463] | inactive: 0.789
GDFGLSRYMEDSTYY [FAK1_HUMAN_570] | inactive: 0.693
